Results from PubChem BioAssay AID2147 (National Center for Advancing Translational Sciences (NCATS), 2009).
Among all 230,000 compounds or so, about 3,600 (1.6%) were called active. The inconclusive results got no clear call from the source; some entries with a clear call stand among them for comparison. Calls follow the shape of the dose curve; as a rule, active = well fitted inhibition curve with a large enough effect (not every such curve was filed as active); inconclusive = small, poorly fitted or top-dose-only effect, or another doubt; inactive = no such curve, though single readings can be large or run the other way. Potencies beside an inconclusive call are fits to weak or partial responses and may not hold up.

What follows are compounds tested against Lysine-specific demethylase 4E (Homo sapiens) (UniProt B2RXH2) (assay: qHTS Assay for Inhibitors of Human Jumonji Domain Containing 2E (JMJD2E)). Conditions: JMJD2E catalytic domain, FDH-coupled NADH fluorescence (FDH is formaldehyde dehydrogenase); series mostly up to 57.1 µM; activity change, negative = inhibition: at the top concentration.
Also: nearly all actives have a fitted effect of over 50% in size.
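For activity change, negative = inhibition in this document: 0% = wells with enzyme and -100% = buffer wells without enzyme.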
Potency is read from the fitted curve at half-maximal effect; tags tell the direction and shape of the fitted curve.

UniProt B2RXH2, sequence (B2RXH2 whole entry, looked up, the tested form may be a part): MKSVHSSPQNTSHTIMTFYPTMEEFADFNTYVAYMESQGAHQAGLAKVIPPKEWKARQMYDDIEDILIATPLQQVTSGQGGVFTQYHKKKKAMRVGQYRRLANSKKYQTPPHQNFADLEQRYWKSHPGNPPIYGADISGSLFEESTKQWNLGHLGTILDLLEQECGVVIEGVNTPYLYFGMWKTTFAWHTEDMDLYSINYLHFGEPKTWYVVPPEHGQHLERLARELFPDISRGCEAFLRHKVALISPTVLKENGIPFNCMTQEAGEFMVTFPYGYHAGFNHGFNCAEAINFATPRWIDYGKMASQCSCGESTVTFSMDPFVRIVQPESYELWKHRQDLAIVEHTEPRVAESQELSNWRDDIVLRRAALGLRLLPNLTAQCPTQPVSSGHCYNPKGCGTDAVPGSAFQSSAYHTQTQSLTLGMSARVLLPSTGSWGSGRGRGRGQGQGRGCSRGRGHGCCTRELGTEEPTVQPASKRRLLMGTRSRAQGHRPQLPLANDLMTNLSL

Row | Compound | activity change, negative = inhibition | Potency
1 | CSc1nccc(Nc2ccccc2)c1C#N | inactive: 8.37% | –
2 | COc1ccc(-c2cc3nc(-c4ccccc4)cc(N4CCC5(CC4)OCCO5)n3n2)cc1 | – | inconclusive: 28.2 µM [inhibitor, partial curve]
3 | O=C(CCc1nnc(CCCCc2ccccc2)o1)N1CCCCC1CCO (configuration not stated) | inactive: -2.42% | –
4 | O=C(CSc1ccccc1C(=O)O)NCc1ccccc1 | inactive: 1.49% | –
5 | Cc1ccc2c(Cl)cc(Cl)c(OCC(=O)O)c2n1 | – | inconclusive: 31.6 µM [inhibitor, partial curve]
6 | CNC(=O)c1cc2cc(OC)ccc2oc1=N | – | inconclusive: 28.2 µM [inhibitor, partial curve]
7 | Clc1ccc(-c2csc(-c3cccnc3)n2)s1 | – | inconclusive: 35.5 µM [inhibitor, single point]
8 | CCn1cc(C(=O)O)c(=O)c2cnc(N3CCN(C(=S)NC(=O)c4ccccc4)CC3)nc21 | – | inconclusive: 39.8 µM [inhibitor, single point]
9 | CC1(OC(=O)c2ccc(Cl)nc2)C(=O)C=C2C=C(C3CC3)OC=C2C1=O (configuration not stated) | inactive: -3.94% | –
10 | NC(=O)CC(NC(=O)Cc1cccc2ccccc12)c1ccc(N2CCN(c3ccc(F)cc3)CC2)c([N+](=O)[O-])c1 (configuration not stated) | inactive: -3.45% | –
11 | CC(C)c1nc2cc3ccccc3cc2[nH]1 | – | inconclusive: 25.1 µM [inhibitor, single point]
12 | CCCCCn1c(SCc2ccncc2)nc2cc(C(=O)NCc3ccco3)ccc2c1=O | – | inconclusive: 39.8 µM [inhibitor, single point]
13 | CC(=O)Oc1c(Cl)cc(Cl)cc1/C=C/c1ccc2ccccc2n1 | inactive: -25.2% | –
14 | Cc1cc(C)c2c(c1)cc(C)c1nnc(SCC(=O)Nc3ccc(S(=O)(=O)N4CCCCC4)cc3)n12 | – | inconclusive: 39.8 µM [inhibitor, single point]
15 | COc1cc(/C=N/NC(=O)C2CCN(CC(O)COCc3ccccc3)CC2)cc(OC)c1OC (configuration not stated) | – | inconclusive: 39.8 µM [inhibitor, single point]
16 | COC(=O)C1=C(Nc2ccc(C)cc2)C=C(C)C(C(=O)OC)C1c1ccc(F)cc1 (configuration not stated) | – | inconclusive: 31.6 µM [inhibitor, single point]
17 | CCN1CC2=C(OC(N)=C(C#N)C2c2ccccc2)/C(=C\c2ccccc2)C1 (configuration not stated) | – | inconclusive: 14.1 µM [inhibitor, partial curve]
18 | Cc1ccc2[nH]c3c(c2c1)CCC3=O | – | inconclusive: 28.2 µM [inhibitor, partial curve]
19 | COC(=O)C1(C)Nc2ccccc2C(=O)N1c1ccccc1OC (configuration not stated) | – | inconclusive: 28.2 µM [inhibitor, partial curve]
20 | C=CCN1CC2(c3ccccc3)CN(CC=C)CC(c3ccccc3)(C1)C2=O | inactive: -3.09% | –
21 | O=C(Cc1ccccc1)N1CCN=C1SCc1ccc([N+](=O)[O-])cc1 | inactive: 2.67% | –
22 | CCCn1c(-c2ccc(F)cc2)nc2c(NCC(C)(C)CN(C)C)nc(C)nc21 | – | inconclusive: 31.6 µM [inhibitor, partial curve]
23 | CCOc1ccc(S(=O)(=O)c2c(C(=O)c3ccccc3)cnc3cc4c(cc23)OCCO4)cc1 | – | inconclusive: 31.6 µM [inhibitor, partial curve]
24 | Cc1ccccc1C(=O)NC(=S)Nc1sc2c(c1C#N)CCCC2 | inactive: -0.11% | –

Row | Compound | activity change, negative = inhibition | Potency
25 | Cc1ccc(NC(=O)Cn2cccc2)cc1Cl | inactive: 4.67% | –
26 | CN1CCN2c3ccccc3Cc3ccccc3[C@@H]2C1 | – | inconclusive: 12.6 µM [inhibitor, single point]
27 | CC(C)c1cc(C(N)=O)c(NC(=O)c2cccc(COc3ccc(Cl)cc3)c2)s1 | – | inconclusive: 35.5 µM [inhibitor, single point]
28 | CC(=O)Oc1ccc(-c2csc(Nc3ccc(S(N)(=O)=O)cc3)n2)cc1 | – | inconclusive: 39.8 µM [inhibitor, single point]
29 | COc1ccccc1/C=C/C(=O)NCC(=O)N/N=C/c1ccc2c(c1)OCO2 | – | inconclusive: 28.2 µM [inhibitor, partial curve]
30 | CN(Cc1nc(C(c2ccccc2)c2ccccc2)no1)CC1COCCO1 (configuration not stated) | – | inconclusive: 28.2 µM [inhibitor, partial curve]
31 | c1ccc(C2=NN(c3ccccc3)CC2)cc1 | – | inconclusive: 28.2 µM [inhibitor, partial curve]
32 | CCOc1ccc(NC(=O)CN(C)S(=O)(=O)c2cccs2)cc1 | inactive: -1.68% | –
33 | O=C(COc1ccccc1)N1N=C(c2cccnc2)CC1(O)C(F)(F)F (configuration not stated) | inactive: 2.54% | –
34 | CC(=O)Oc1cccc(N2C(=O)CC(Nc3ccc(N4CCOCC4)cc3)C2=O)c1 (configuration not stated) | – | inconclusive: 39.8 µM [inhibitor, single point]
35 | Cc1onc(-c2ccccc2Cl)c1C(=O)Nc1nnc(-c2ccc(Cl)cc2Cl)s1 | – | inconclusive: 31.6 µM [inhibitor, partial curve]
36 | O=C(NCCN1CCOCC1)c1cc2sccc2n1Cc1ccc(Cl)cc1 | inactive: -1.66% | –
37 | Cc1ccccc1Cn1c(C(=O)OC(C)C)cc2c1ccn2C | – | inconclusive: 39.8 µM [inhibitor, single point]
38 | CCCn1c2ccccc2c2nnc(SC(CC)C(=O)Nc3cc(C)on3)nc21 (configuration not stated) | inactive: 9.8% | –
39 | Cc1ccc2cc(-c3noc(C(C)(C)C)n3)c(=O)[nH]c2c1 | – | inconclusive: 7.94 µM [inhibitor, partial curve]
40 | Cc1cccc(NC(=S)N/N=C/c2cccc(O)c2)c1C | inactive: 7.36% | –
41 | COc1ccccc1CNC(=O)CSc1ccsc1[N+](=O)[O-] | inactive: -13.1% | –
42 | Nc1ncnc2nc(Cl)[nH]c12 | inactive: 5.63% | –
43 | COC(=O)c1ccccc1NC(=O)c1cc(-c2cccs2)on1 | – | inconclusive: 3.16 µM [inhibitor, partial curve]
44 | CC1(C)CC(=O)C(C=Nc2ccccc2)=C(O)C1 | inactive: 6.68% | –
45 | CCOc1cc(C2NN=C(c3ccccc3)S2)ccc1OCc1ccc(F)cc1 (configuration not stated) | – | inconclusive: 3.55 µM [inhibitor, partial curve, poor fit]
46 | C=CCc1cc(/C=C2/NC(=O)N(CC)C2=O)cc(OCC)c1OCc1ccc(C(=O)O)cc1 | – | inconclusive: 31.6 µM [inhibitor, single point]
47 | COCc1cc(C)nc2sc(C(=O)N3CCCCC3)c(N)c12 | – | inconclusive: 25.1 µM [inhibitor, single point]
48 | CC(C)(C)c1ccc(C(=O)c2c[nH]c(C(=O)NCCc3ccccn3)c2)cc1 | inactive: 4.7% | –

Row | Compound | activity change, negative = inhibition | Potency
49 | CC1Oc2ccccc2C=C1/C=N/NC(=O)[C@@H](C)NC(=O)OC(C)(C)C (some centres not stated) | – | inconclusive: 28.2 µM [inhibitor, partial curve]
50 | COc1ccc(CCn2c(-c3ccc(C(C)(C)C)cc3)n[nH]c2=S)cc1OC | – | inconclusive: 25.1 µM [inhibitor, single point]
51 | Cc1ccc(-c2c(C(=O)N3CCOCC3)oc(=O)c3ccccc23)cc1 | inactive: -6.99% | –
52 | CCn1c(=O)n(CCOC)c(=O)c2c3c(sc21)CCCC3 | inactive: 1.6% | –
53 | COc1ccc2[nH]c(=O)c(CN(Cc3cccnc3)C(=O)Nc3ccccc3)cc2c1 | – | inconclusive: 28.2 µM [inhibitor, partial curve]
54 | CSc1nc(SCC(=O)NC(c2ccccc2)c2ccccc2)c2c3c(sc2n1)CN(C)CC3 | – | inconclusive: 35.5 µM [inhibitor, single point]
55 | O=C(CN1CCC(C(O)(c2ccccc2)c2ccccc2)CC1)Nc1ccccc1 | inactive: -0.44% | –
56 | COc1cccc(SCC2CSc3nc4ccccc4c(=O)n32)c1 (configuration not stated) | inactive: -8.52% | –
57 | COc1ccc(CC(=O)NNc2ncnc3c2cnn3C)cc1 | inactive: 0.859% | –
58 | CCC(=O)Nc1cc2nn(-c3ccc(C)cc3)nc2cc1C | – | inconclusive: 12.6 µM [inhibitor, partial curve]
59 | CC(C)CN1C(=O)CC(Sc2ccccc2C(=O)O)C1=O (configuration not stated) | inactive: 2.6% | –
60 | Nc1c(C(=O)NC2CCCCC2)c2nc3ccccc3nc2n1/N=C/c1ccco1 | – | inconclusive: 10 µM [inhibitor, partial curve]
61 | Clc1ccc(-c2cn3c(n2)-c2ccccc2C3)cc1Cl | – | inconclusive: 31.6 µM [inhibitor, single point]
62 | O=c1[nH]c2ccc([N+](=O)[O-])cc2nc1/C=C(\O)c1ccccc1 | inactive: -7.38% | –
63 | N#Cc1c(N)nc(SCC(=O)NCCc2ccccc2)c(C#N)c1-c1cccs1 | – | inconclusive: 28.2 µM [inhibitor, partial curve]
64 | O=C(c1ccc2c(c1)[nH]c(=S)n1c3ccccc3nc21)N1CCN(c2ncccn2)CC1 | – | inconclusive: 39.8 µM [inhibitor, single point]
65 | COc1ccc(CC(=O)Nc2cccc(-c3nnc(-c4ccco4)o3)c2)cc1 | – | inconclusive: 31.6 µM [inhibitor, partial curve]
66 | Cc1ccc(-n2ncc3c(NNC(=O)c4ccco4)ncnc32)c(C)c1 | inactive: -0.484% | –
67 | CN(C)c1ccc(/C=N/NC(=O)CCCO)cc1 | – | inconclusive: 28.2 µM [inhibitor, partial curve]
68 | O=C(O)c1ccc2c(=O)n(-c3ccc(F)c(Cl)c3)c(=S)[nH]c2c1 | – | inconclusive: 25.1 µM [inhibitor, partial curve]
69 | CCCCN(C)S(=O)(=O)c1ccc(C(=O)Nc2nnc(-c3ccco3)o2)cc1 | – | inconclusive: 22.4 µM [inhibitor, single point]
70 | Cc1c2c(nc3ccccc13)CC(C)(C)CC2=O | – | inconclusive: 39.8 µM [inhibitor, single point]
71 | c1ccc(-c2cnc(SCCN3CCOCC3)n2CC2CCCO2)cc1 (configuration not stated) | – | inconclusive: 25.1 µM [inhibitor, single point]
72 | CC1CC[C@]2(CO)CC[C@]3(C)C(=CCC4[C@@]5(C)CCC(O)C(C)(C)C5CC[C@@]43C)C2C1C (some centres not stated) | inactive: 1.08% | –
